{"source": "PubChem BioAssay AID1347070", "about": "(National Center for Advancing Translational Sciences (NCATS), 2019)", "note": "In all, about 94,000 compounds went through this assay and about 20 (0.02%) were called active. This list was built around the results that the source calls inconclusive (neither active nor inactive); the mix of calls is not that of the screen. The call rests on the fitted dose curve; in most records, active means well fitted activation curve with a large enough effect; inconclusive means small, poorly fitted or top-dose-only effect; inactive means flat fitted curve, though single readings scatter. Potencies of inconclusive entries are left out as doubtful fits. Potency means the concentration at half of the fitted maximal effect; tags describe the fitted curve by direction and shape.", "data": [{"experiment": "qHTS of alpha-syn Inhibitors: NCGC Sytravon Library Screen; on growth rescue (activation): 0% is about no effect", "conditions": "S. cerevisiae alpha-synuclein toxicity rescue, BacTiter-Glo growth, 24 h; growth rescue (activation): at 46.1 µM (top of the series)", "description": "The goal of this project is to identify new chemical probes capable of reversing the toxicity associated with the Parkinson disease-related protein, alpha-synuclein. Compounds will be selected on their ability to restore growth in yeast cells expressing toxic levels of alpha-synuclein. These compounds will provide a complementary approach to deciphering the tangled mechanisms of toxicity and protection that we have uncovered through genome-wide genetic screens and are beginning to uncover in a large-scale proteomics analysis with mass spectroscopy. To this end, a miniaturized assay was developed to be screened against the Molecular Libraries Small Molecule Repository (MLSMR) to discover alpha-synuclein inhibitors. […] The phenotype of interest will be that of an Activator and this screen is run against the NCGC Sytravon Library collection. NIH Chemical Genomics Center [NCGC] NIH Molecular Libraries Probe Centers Network [MLPCN] MLPCN Grant: NS060957 Assay Submitter (PI): Susan Lindquist, Whitehead Institute/MIT\nDispense 2.5 microL yeast galactose medium per 1536-well plate, pin compound, dispense 2.5 microL alpha-synuclein expressing yeast in galactose medium at OD600=0.02 (pregrown in raffinose medium to mid-log phase) per well, incubate for 24 hr at 30 deg C, and cell growth will be measured using 5 microL of Bactiter/Glo reagent to entire plate and read using Luminescence Protocol in ViewLux.", "values": [{"molecule": "CCc1cccc(NC(=O)CN2C(=O)CN=C(c3ccccc3F)c3cc(Cl)ccc32)c1", "Potency": "active: 20 µM"}, {"molecule": "O=C(CCNS(=O)(=O)c1ccccc1)Nc1ccc(Cl)cc1C(=O)c1ccccc1", "growth rescue (activation)": "inconclusive: 39.5% [activator]"}, {"molecule": "CCN(CC)C(=O)c1ccc(NC(=O)CCn2nc(-c3ccc(Cl)cc3)c3ccccc3c2=O)cc1", "growth rescue (activation)": "inactive: -2.29%"}, {"molecule": "CN1OC[C@@H]2CN[C@H](c3ccc(Br)cc3)C[C@@H]21", "growth rescue (activation)": "inconclusive: 60.2% [activator]"}, {"molecule": "O=C(Nc1ccc2c(c1)OCO2)c1cccn(Cc2ccccc2)c1=O", "growth rescue (activation)": "inactive: 3.46%"}, {"molecule": "Cc1cc(C)cc(NC(=O)CN2C(=O)CN=C(c3ccccc3)c3cc(Cl)ccc32)c1", "Potency": "inconclusive [activator, single point]"}, {"molecule": "COc1ccc(OCC(=O)N2CCN(Cc3ccc(SC)cc3)CC2)cc1", "Potency": "inconclusive [activator, single point]"}, {"molecule": "COc1cccc(NP(=O)(Oc2ccccc2Cl)Oc2ccccc2Cl)c1", "growth rescue (activation)": "inconclusive: 43.3% [activator]"}, {"molecule": "O=C1CN=C(c2ccccc2Cl)c2cc(Cl)ccc2N1Cc1cccc(Cl)c1", "Potency": "inconclusive [activator, single point]"}, {"molecule": "Cc1ccc2c(c1)C(Cc1nc3ccccc3c(=O)n1-c1ccc(Br)cc1)C(=O)N2", "note": "(configuration not stated)", "Potency": "inconclusive [activator, single point]"}, {"molecule": "COc1ccc(Cl)cc1NC(=O)CN1C(=O)CN=C(c2ccccc2)c2cc(Cl)ccc21", "Potency": "inconclusive [activator, single point]"}, {"molecule": "CCCSc1nc2ccccc2c(=O)n1-c1ccccc1OC", "Potency": "inconclusive [activator, single point]"}, {"molecule": "Cc1ccc(-n2c(/C=C/c3ccc(Br)s3)nc3ccccc3c2=O)cc1C", "Potency": "inconclusive [activator, single point]"}, {"molecule": "COc1ccc(NC(=O)CN2C(=O)C(C)N=C(c3ccccc3F)c3cc(Cl)ccc32)c(OC)c1", "note": "(configuration not stated)", "growth rescue (activation)": "inconclusive: 30.4% [activator]"}, {"molecule": "Nc1c(C(=O)Nc2ccc(OC(F)(F)F)cc2)sc2nc3c(cc12)N1CCC3CC1", "growth rescue (activation)": "inactive: -6.82%"}, {"molecule": "COc1cc(/C=C/c2nc3ccccc3c(=O)n2-c2ccc(Br)c(C)c2)ccc1O", "Potency": "inconclusive [activator, single point]"}, {"molecule": "N#CC1c2ccccc2C=CN1C(=O)c1ccc(N(CCCl)CCCl)cc1", "note": "(configuration not stated)", "growth rescue (activation)": "inconclusive: 40.9% [activator]"}, {"molecule": "CCOP(=O)(OCC)/C(C#N)=C/c1ccc(Br)cc1", "growth rescue (activation)": "inconclusive: 86.3% [activator]"}, {"molecule": "Cc1ccc(S(=O)(=O)NCCC(=O)Nc2ccc(Cl)cc2C(=O)c2ccccc2)cc1", "growth rescue (activation)": "inconclusive: 104% [activator]"}, {"molecule": "COc1ccc(NC(=O)CN2C(=O)CN=C(c3ccccc3)c3ccccc32)c(OC)c1", "growth rescue (activation)": "inactive: 6.03%"}, {"molecule": "CC(=O)O[C@@]12CO[C@@H]1C[C@H](O)[C@@]1(C)C(=O)[C@H](O)C3=C(C)[C@@H](OC(=O)[C@H](O)[C@@H](NC(=O)c4ccccc4)c4ccccc4)C[C@@](O)([C@@H](OC(=O)c4ccccc4)C12)C3(C)C", "note": "(some centres not stated)", "growth rescue (activation)": "inactive: 5.39%"}, {"molecule": "COc1cccc(-n2c(/C=C/c3cccc(C)c3)nc3ccccc3c2=O)c1", "Potency": "inconclusive [activator, single point]"}]}]}
